Results taken from PubChem BioAssay AID540267 (National Center for Advancing Translational Sciences (NCATS), 2011).
Hit rate of the full screen: of about 340,000 compounds, about 530 (0.16%) were called active. The shares of active, inactive and inconclusive entries below differ from those in the screen. Rule as the data show it: active = activity change below about -80%; inconclusive = between about -30% and that limit; inactive = weaker than that.

assay: Small Molecules that selectively kill Giardia lamblia: qHTS; conditions: Giardia lamblia trophozoite viability; at 7.66 µM; hits give low values;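 also: parasites exposed to compound for two days anaerobically before the ATP read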
Method in brief: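 Giardia trophozoites, 100 cells per well, were exposed to compounds for 48 hrs at 37 deg C under anaerobic conditions; viability was then read as ATP content by bioluminescence after 15-30 min at room temperature.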
% is scaled to controls: 0 for no effect and ±100 for the full control effect.

SMILES	activity change
CN(C)S(=O)(=O)c1cccc(NC(=O)Cn2cc(C(F)(F)F)cc(Cl)c2=O)c1	inconclusive: -31.2% [inhibitor]
COc1ccc(NS(=O)(=O)c2ccc3c(c2)N(C(C)=O)CCO3)cc1	inconclusive: -30.7% [inhibitor]
O=C(CSc1ncnc2ccccc12)Nc1ccc2c(c1)OCO2	inconclusive: -34.4% [inhibitor]
CCOC(=O)c1[nH]c2ccc(OC)cc2c1NC(=O)NC(C)C	inactive: -7.55%
CCCCSc1nnc(-c2c[nH]c3ccccc23)n1C	inactive: 0.127%
Cc1ccc(C)c(NC(=O)CSc2nnc(CSc3nc(C)cc(C)n3)n2Cc2ccco2)c1	inactive: -7.61%
Cc1ccc(SCC(=O)Nc2ccc(C(=O)Nc3ccc(O)cc3)cc2)cc1	inactive: -5.94%
Cc1ccc(Nc2nc(CSc3nnc(-c4ccncc4)n3C)cs2)cc1	inconclusive: -56% [inhibitor]
Cc1cccc(CC(=O)NCC2CCCCC2)c1	inconclusive: -30.6% [inhibitor]
O=c1c([N+](=O)[O-])cccn1Cc1ccccc1Cl	inconclusive: -74.5% [inhibitor]
Cc1cc(NCCN2CCOCC2)n2nc(C)c(-c3ccc(Cl)cc3)c2n1	inactive: -14.8%
Cc1ccc(NC(=O)COC(=O)C(NS(=O)(=O)c2ccc(Cl)cc2)C(C)O)cc1C (stereo unspecified)	inconclusive: -34.7% [inhibitor]
CN=c1scc(C)n1/N=C/c1ccc(O)c(O)c1O	inconclusive: -78.3% [inhibitor]
CC(=O)Nc1ccc(N/C(N)=N/c2nc(C)cc(C)n2)cc1	inactive: 1.8%
Brc1ccc(OCc2nnnn2-c2ccccc2)cc1	inactive: -1.19%
O=C(CSc1nc(-c2ccc(F)cc2)nc2c1Cc1ccccc1O2)Nc1cccc(C(=O)O)c1	inconclusive: -35.1% [inhibitor]
Cc1ccc(C(=O)CC2(O)C(=O)N(Cc3ccccc3)c3ccccc32)o1 (stereo unspecified)	inconclusive: -30.3% [inhibitor]
COc1ccc(CN(C)CC(=O)NCC(=O)Nc2c(C)cccc2C)cc1	inconclusive: -30.5% [inhibitor]
COc1ccc(/C=N/N2C(C)CCCC2C)cc1O (stereo unspecified)	inactive: -10.4%
O=C(CSc1nnc(CNC(=O)C23CC4CC(CC(C4)C2)C3)n1-c1ccc(F)cc1)Nc1ccc(F)cc1	inactive: 9.13%
COc1ccc(C(=O)OCC(=O)Nc2ncc([N+](=O)[O-])s2)cc1OC	inconclusive: -76% [inhibitor]

SMILES	activity change
CCOc1ccc(OCc2cccc(C(=O)N3CCOCC3)c2)cc1	inconclusive: -31.8% [inhibitor]
Cc1ccc(S(=O)(=O)c2c(C)cc(C)nc2Oc2cccc(C)c2C)cc1	inactive: -17.9%
Cc1ccc(OCCCCn2ccnc2)c([N+](=O)[O-])c1	inconclusive: -42.8% [inhibitor]
Cn1c2c(c(=O)n(C)c1=O)C(NS(=O)(=O)c1ccccc1)(C(F)(F)F)C(=O)N2 (stereo unspecified)	inactive: -3.84%
C/C(=N\NC(=S)NC(C)C)c1ccc(Cl)c([N+](=O)[O-])c1	inactive: 16.1%
Cc1ncc([N+](=O)[O-])n1CCOC(=O)c1ccc(Br)cc1	active: -80.4%
Cc1cc(=O)oc2cc3c(cc12)OCCN3	inactive: -17.7%
Nc1nnc(CCS(=O)(=O)c2ccc(Br)cc2)s1	inactive: 12.9%
CCOc1ccccc1CN1CCN(S(=O)(=O)CC)CC1	inactive: -4.4%
COC(=O)CN(c1ccc(Cl)cc1C)S(C)(=O)=O	inconclusive: -34.2% [inhibitor]
CCc1ccc2[nH]c(=O)c(CN(CC3CCCO3)C(=S)NCc3ccco3)cc2c1 (stereo unspecified)	inactive: -7.59%
NC(=O)CC(NC(=O)Cc1ccc(Br)cc1)c1ccc(N2CCCCCCC2)c([N+](=O)[O-])c1 (stereo unspecified)	inconclusive: -33.6% [inhibitor]
Cc1c(C)c2ccc(OCC(=O)Nc3nccs3)cc2oc1=O	inconclusive: -36.6% [inhibitor]
O=C(NC(=S)N1CCCCC1)c1csc([N+](=O)[O-])c1	inconclusive: -58.7% [inhibitor]
COc1ccc(OC)c(CC(=O)N2CCc3cc(OC)c(OC)cc3C2)c1	inactive: -16.8%
Cc1ccc(O)c(-c2cc(-c3ccccc3[N+](=O)[O-])[nH]n2)c1	inactive: 21%
CCC(C)(C)n1nnnc1C(c1cc2ccc(OC)cc2[nH]c1=O)N1CCc2ccccc2C1 (stereo unspecified)	inactive: -9.86%
Cc1c(C(=O)c2ccc(Cl)cc2[N+](=O)[O-])c2ccccn2c1CCC#N	active: -100%
Cc1nn2c3c(cnc2c1-c1ccccc1)C(=O)CCC3	inactive: 1.16%
COc1cc(SC)ccc1C(=O)Nc1ccc(Cl)cn1	inconclusive: -60.8% [inhibitor]
CC(=O)NCCn1c(SCC(=O)NCCC2=CCCCC2)nc2ccccc2c1=O	inactive: -9.03%

SMILES	activity change
COc1ccc2cc3cc(C(=O)NCC4COc5ccccc5O4)oc3nc2c1 (stereo unspecified)	inactive: 15.1%
C=CCn1c(SCC(=O)N(CCOC)c2c(N)n(CCCC)c(=O)[nH]c2=O)nnc1-c1ccc(Cl)cc1	inconclusive: -32.9% [inhibitor]
Cc1ccc(NC(=O)C2(c3ccc([N+](=O)[O-])cc3)CCCC2)cc1	inconclusive: -44% [inhibitor]
CCc1c(C)sc(NC(=O)C2CCCO2)c1C#N (stereo unspecified)	inactive: 1.89%
COc1cccc(NC(=S)NC(=O)/C=C/c2ccc(F)cc2)c1	inactive: -11.6%
CC(C)(C)n1nc(-c2ccc(F)cc2)c2c(N)ncnc21	inconclusive: -31.6% [inhibitor]
O=C(NNC(=O)c1ccc2nonc2c1)Nc1ccc(Cl)cc1	inconclusive: -43.3% [inhibitor]
COc1cc2sc3cc(NCCCN4CCOCC4)ccc3c(=O)c2cc1OC	inconclusive: -59.1% [inhibitor]
C=CCN(Cc1cccs1)C(=O)CN1CCN(S(=O)(=O)c2ccc3c(c2)OCCCO3)CC1	inconclusive: -34.2% [inhibitor]
COc1cnc(-c2ccccn2)nc1Sc1ccc(C)cc1	inactive: -20.7%
COc1ccccc1C(=O)NC(CCSC)C(=O)NC1CC1 (stereo unspecified)	inconclusive: -35.6% [inhibitor]
Cc1ccc(NC(=O)C2CCCC2)cc1S(=O)(=O)N1CCOCC1	inconclusive: -30.7% [inhibitor]
Cc1ccccc1S(=O)Cc1ccc(C(=O)NCCCN2CCCCC2)o1 (stereo unspecified)	inconclusive: -40.8% [inhibitor]
NC(=O)NC(CC(=O)NCCc1ccc(S(N)(=O)=O)cc1)c1ccccc1Cl (stereo unspecified)	inactive: -27.3%
CCCC1CC(C(=O)Nc2ccccc2)C(=O)O1 (stereo unspecified)	inactive: 1.32%
Cc1ccc(NC(=O)CN(C)CC(=O)Nc2ccc(F)c(F)c2F)c(Cl)c1	inactive: 12.6%
COC(=O)c1ccccc1NC(=O)CN1CCN(c2ccccn2)CC1	inactive: -14.2%
C=C1N(CCCCCC(=O)O)C(=O)OC12CCCCC2	inconclusive: -30% [inhibitor]
CCCOc1ccc(N2C(=O)CC(NCc3ccncc3)C2=O)cc1 (stereo unspecified)	inconclusive: -32.5% [inhibitor]
COC1C(OC(=O)/C=C/C=C/C=C/C=C/C(=O)O)CCC2(CO2)C1C1(C)OC1CC=C(C)C (stereo unspecified) (tested in a mixture with another compound)	inconclusive: -69.6% [inhibitor]
S=c1[nH]nc(-c2cc3ccccc3o2)n1Cc1ccccc1	inactive: 29.9%

SMILES	activity change
Cc1ccc2nc(NC(=O)c3ccccn3)sc2c1	inconclusive: -45.9% [inhibitor]
S=C(Nc1ccc2c(c1)OCO2)N1CCN(Cc2ccco2)CC1	inconclusive: -56.4% [inhibitor]
O=C(NNC(=S)NCc1ccccc1)c1ccc(Br)cc1	inconclusive: -31.9% [inhibitor]
Cc1c(C(=O)NNC(=S)Nc2ccc(S(N)(=O)=O)cc2)oc2ccccc12	inconclusive: -33.9% [inhibitor]
CN(Cc1ccccc1)C(=O)c1cccnc1	inactive: 0.595%
Cc1ccccc1C(=O)O/N=C(\N)c1ccccc1	inconclusive: -30.3% [inhibitor]
Cc1cc(C)c2c(=O)cc(C(=O)NCc3ccccc3)oc2c1	inactive: 9.37%
O=[N+]([O-])c1ccc(S(=O)(=O)Nc2ccc3c(c2)OCCO3)cc1	inconclusive: -34.7% [inhibitor]
COc1ccccc1NS(=O)(=O)c1cccc(N=C2N=C(N)c3ccccc32)c1	inconclusive: -32% [inhibitor]
COc1ccc(N2CCN(C(=O)C(Cc3ccccc3)NC(=O)c3ccccc3)CC2)cc1 (stereo unspecified)	inconclusive: -31.5% [inhibitor]
c1ccc(CN(CC2=NCCN2)c2ccccc2)cc1	inconclusive: -33.7% [inhibitor]
C[C@H]1C(c2ccc(F)cc2)=NN(c2ccccc2)[C@@H]1CO	inconclusive: -38.2% [inhibitor]
O=C(NCCCN1CCOCC1)C(=O)N/N=C/c1ccccc1Cl	inconclusive: -37.4% [inhibitor]
N#Cc1sc(C(N)=O)c(-c2ccccc2)c1-c1ccccc1	inconclusive: -33.1% [inhibitor]
O=C1/C(=C\c2ccco2)SC(=S)N1c1ccccc1	inactive: -3.06%
CCc1cc(=S)n2c([nH]c3ccccc32)c1C#N	inactive: 4.27%
COc1ccc(C(CCN2CCOCC2)c2c(OC)cc(OC)c3ccc(=O)oc23)cc1 (stereo unspecified)	inconclusive: -30.3% [inhibitor]
O=C(Nc1ccon1)c1nc[nH]c1C(=O)NCc1ccccc1	inconclusive: -40% [inhibitor]
